Data taken from publication PMC3500392 (ACS chemical biology, 2012).
Where a name gives a salt, the structure may show the parent alone. Each block holds one compound with its values, some of them ahead of it.

Columns and labels:
GRK2 [1] = conditions: balanol ref 17, 18; C13 ref 24; cited from earlier work
[2] = tested on: adult mouse ventricular myocyte contractility; assay: Myocyte shortening measurements; conditions: 10 μM
GRK2 [3] = target: T1, GRK2 (Homo sapiens, UniProt P25098, S670A); assay: Thermofluor thermal stability assay, GRK2; conditions: 200 μM ligand
T1 sequence (P25098 1-689 S670A): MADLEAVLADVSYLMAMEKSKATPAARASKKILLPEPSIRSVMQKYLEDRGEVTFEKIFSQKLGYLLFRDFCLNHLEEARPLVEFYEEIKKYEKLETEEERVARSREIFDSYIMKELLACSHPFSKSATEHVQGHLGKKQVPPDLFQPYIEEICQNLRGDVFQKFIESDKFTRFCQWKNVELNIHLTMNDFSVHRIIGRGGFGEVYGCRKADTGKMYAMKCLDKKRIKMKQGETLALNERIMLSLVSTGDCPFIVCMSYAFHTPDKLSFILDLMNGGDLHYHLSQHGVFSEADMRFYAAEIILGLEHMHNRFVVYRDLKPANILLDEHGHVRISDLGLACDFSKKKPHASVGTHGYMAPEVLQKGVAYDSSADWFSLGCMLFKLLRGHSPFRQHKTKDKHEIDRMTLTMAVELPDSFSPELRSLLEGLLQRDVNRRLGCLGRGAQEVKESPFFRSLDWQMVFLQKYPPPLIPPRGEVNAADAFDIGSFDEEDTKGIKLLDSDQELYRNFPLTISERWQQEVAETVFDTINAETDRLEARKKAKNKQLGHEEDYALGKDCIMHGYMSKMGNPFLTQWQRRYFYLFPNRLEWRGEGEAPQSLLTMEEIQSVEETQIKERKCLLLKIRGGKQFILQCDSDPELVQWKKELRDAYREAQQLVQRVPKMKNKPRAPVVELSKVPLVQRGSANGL

GRK2 [4] = target: T1, GRK2; type: binding; conditions: flow cytometry bead binding; for pIC50, competition (2 nM C13.28-FAM): bGRK2
GRK5 = GRK5 (Bos taurus, UniProt P43249); assay: Thermofluor thermal stability assay, GRK5; type: binding, bovine; conditions: 200 μM ligand
GRK1 = target: T2, GRK1 (Bos taurus, UniProt P28327); assay: Thermofluor thermal stability assay, GRK1; type: binding, bovine; conditions: 200 μM ligand
T2 sequence (P28327 1-535): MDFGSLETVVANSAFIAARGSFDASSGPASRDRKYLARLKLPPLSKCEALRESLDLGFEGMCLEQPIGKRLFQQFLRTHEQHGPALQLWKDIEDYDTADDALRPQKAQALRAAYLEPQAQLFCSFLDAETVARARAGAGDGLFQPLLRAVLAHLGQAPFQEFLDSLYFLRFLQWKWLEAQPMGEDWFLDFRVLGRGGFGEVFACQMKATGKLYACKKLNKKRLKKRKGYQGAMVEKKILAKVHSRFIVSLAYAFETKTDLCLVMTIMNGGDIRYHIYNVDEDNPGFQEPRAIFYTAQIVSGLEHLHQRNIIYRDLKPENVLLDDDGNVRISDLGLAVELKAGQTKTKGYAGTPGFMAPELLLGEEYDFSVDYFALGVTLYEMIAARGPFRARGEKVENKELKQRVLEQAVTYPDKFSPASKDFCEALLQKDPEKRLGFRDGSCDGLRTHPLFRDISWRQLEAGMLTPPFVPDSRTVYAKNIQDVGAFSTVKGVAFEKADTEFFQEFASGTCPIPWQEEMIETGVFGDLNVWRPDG

[5] = baseline before isoproterenol, 10 min

Compound: O=C(N[C@@H]1CNCCC[C@H]1OC(=O)c1cc(O)c(C(=O)c2c(O)cccc2C(=O)O)c(O)c1)c1ccc(O)cc1 [balanol]
inhibition of GRK2 (potency in words) (GRK2 [1]): low nanomolar range

Compound: Fc1ccc([C@@H]2CCNC[C@H]2COc2ccc3c(c2)OCO3)cc1 [paroxetine, paroxetine hydrochloride]
Max. contraction amplitude ([2]; after isoproterenol (0.2 μM, 2 min), 10 min pretreatment): 15.8 ± 1.3 % cell length | % increase in contraction amplitude ([2]; after isoproterenol, 10 min pretreatment): 260.2 ± 19.0% | Half-time of relaxation [2, 5]: 65.9 ± 7.3 ms | Max. relengthening velocity [2, 5]: 0.58 ± 0.08 μm s^−1 | Max. shortening velocity [2, 5]: −0.77 ± 0.09 μm s^−1 | Max. contraction amplitude ([2]; baseline before isoproterenol, 10 min pretreatment): 4.5 ± 0.4 % cell length

ΔTm GRK2 (GRK2 [3]): 1.2 ± 0.8 °C | nH (Hill slope), competition (2 nM C13.28-FAM) (GRK2 [4]): −1.6 | pIC50, competition (2 nM C13.28-FAM) (GRK2 [4]): 5.5 ± 0.4
Compound: 4-hydroxy-quinone monohydrate [P-835]

ΔTm GRK5 (GRK5): 7.2 ± 1.1 °C | ΔTm GRK1 (GRK1): 18.0 ± 1.5 °C | ΔTm GRK2 (GRK2 [3]): 4.9 ± 1.6 °C | nH (Hill slope), competition (2 nM C13.28-FAM) (GRK2 [4]): −0.7 | pIC50, competition (2 nM C13.28-FAM) (GRK2 [4]): 4.3 ± 0.3
Compound: Nc1ncnc2c1ncn2[C@@H]1O[C@H](COP(=O)(O)OP(=O)(O)OP(=O)(O)O)[C@@H](O)[C@H]1O [ATP]
